# From the supplement of paper PMC8728848
# Some of the results follow.
# Experiments:
# Assay in all cases: glycan array binding signal (z-score within array); higher = stronger binding
# Settings in all cases: glycan notation: IUPAC condensed, linker removed
# [1] = target: Fuc(a1-2)[Gal(a1-3)]Gal(b1-4)GlcNAc(b1-2)Man(a1-3)[Fuc(a1-2)[Gal(a1-3)]Gal(b1-4)GlcNAc(b1-2)Man(a1-6)]Man(b1-4)GlcNAc(b1-4)[Fuc(a1-6)]GlcNAc
# In short: (§1)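 Glycan array data were curated from 3228 arrays in the Consortium for Functional Glycomics database and kept only where the protein sequence was available. Glycan names were converted to IUPAC-condensed notation, and columns mapping to the same glycan were averaged. The binding signal is a within-array Z-score, averaged across arrays of the same protein sequence at different concentrations or buffers and across linkers. Negative Z-scores can be read as non-binding.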
# [2] = target: Fuc(a1-2)[Gal(a1-3)]Gal(b1-4)GlcNAc(b1-3)GalNAc
# In short: as §1
# [3] = target: Fuc(a1-2)[Gal(a1-3)]Gal(b1-4)GlcNAc(b1-3)[Fuc(a1-2)[Gal(a1-3)]Gal(b1-4)GlcNAc(b1-6)]GalNAc
# In short: as §1
# [4] = target: Fuc(a1-2)[Gal(a1-3)]Gal(b1-4)GlcNAc(b1-6)GalNAc
# In short: as §1
# [5] = target: Fuc(a1-2)[Gal(a1-3)]Gal(b1-4)[Fuc(a1-3)]Glc
# In short: as §1
# [6] = target: Fuc(a1-2)[Gal(a1-3)]Gal(b1-4)[Fuc(a1-3)]GlcNAc
# In short: as §1
# [7] = target: Fuc(a1-2)[Gal(a1-3)]Gal(b1-4)[Fuc(a1-3)]GlcNAc(b1-3)GalNAc
# In short: as §1
# [8] = target: Fuc(a1-2)[Gal(a1-4)]Gal(b1-4)GlcNAc
# In short: as §1
# [9] = target: Fuc(a1-2)[GalNAc(a1-3)]Gal
# In short: as §1
# [10] = target: Fuc(a1-2)[GalNAc(a1-3)]Gal(b1-3)GalNAc(a1-3)[Fuc(a1-2)]Gal(b1-4)GlcNAc
# In short: as §1
# [11] = target: Fuc(a1-2)[GalNAc(a1-3)]Gal(b1-3)GalNAc(b1-3)Gal(a1-4)Gal(b1-4)Glc
# In short: as §1
# [12] = target: Fuc(a1-2)[GalNAc(a1-3)]Gal(b1-3)GlcNAc
# In short: as §1
# [13] = target: Fuc(a1-2)[GalNAc(a1-3)]Gal(b1-3)GlcNAc(b1-2)Man(a1-3)[Fuc(a1-2)[GalNAc(a1-3)]Gal(b1-3)GlcNAc(b1-2)Man(a1-6)]Man(b1-4)GlcNAc(b1-4)GlcNAc
# In short: as §1
# [14] = target: Fuc(a1-2)[GalNAc(a1-3)]Gal(b1-3)GlcNAc(b1-2)Man(a1-3)[Fuc(a1-2)[GalNAc(a1-3)]Gal(b1-3)GlcNAc(b1-2)Man(a1-6)]Man(b1-4)GlcNAc(b1-4)[Fuc(a1-6)]GlcNAc
# In short: as §1
# [15] = target: Fuc(a1-2)[GalNAc(a1-3)]Gal(b1-3)GlcNAc(b1-3)GalNAc
# In short: as §1
# [16] = target: Fuc(a1-2)[GalNAc(a1-3)]Gal(b1-3)GlcNAc(b1-6)GalNAc
# In short: as §1
# [17] = target: Fuc(a1-2)[GalNAc(a1-3)]Gal(b1-4)Glc
# In short: as §1
# [18] = target: Fuc(a1-2)[GalNAc(a1-3)]Gal(b1-4)GlcNAc
# In short: as §1
# [19] = target: Fuc(a1-2)[GalNAc(a1-3)]Gal(b1-4)GlcNAc(b1-2)Man
# In short: as §1
# [20] = target: Fuc(a1-2)[GalNAc(a1-3)]Gal(b1-4)GlcNAc(b1-2)Man(a1-3)[Fuc(a1-2)[GalNAc(a1-3)]Gal(b1-4)GlcNAc(b1-2)Man(a1-6)]Man(b1-4)GlcNAc(b1-4)GlcNAc
# In short: as §1
# [21] = target: Fuc(a1-2)[GalNAc(a1-3)]Gal(b1-4)GlcNAc(b1-2)Man(a1-3)[Fuc(a1-2)[GalNAc(a1-3)]Gal(b1-4)GlcNAc(b1-2)Man(a1-6)]Man(b1-4)GlcNAc(b1-4)[Fuc(a1-6)]GlcNAc
# In short: as §1
# [22] = target: Fuc(a1-2)[GalNAc(a1-3)]Gal(b1-4)GlcNAc(b1-3)Gal(b1-4)GlcNAc
# In short: as §1
# [23] = target: Fuc(a1-2)[GalNAc(a1-3)]Gal(b1-4)GlcNAc(b1-3)Gal(b1-4)GlcNAc(b1-3)Gal(b1-4)GlcNAc
# In short: as §1
# [24] = target: Fuc(a1-2)[GalNAc(a1-3)]Gal(b1-4)GlcNAc(b1-3)GalNAc
# In short: as §1
# [25] = target: Fuc(a1-2)[GalNAc(a1-3)]Gal(b1-4)GlcNAc(b1-3)[Fuc(a1-2)[GalNAc(a1-3)]Gal(b1-4)GlcNAc(b1-6)]GalNAc
# In short: as §1
# [26] = target: Fuc(a1-2)[GalNAc(a1-3)]Gal(b1-4)GlcNAc(b1-6)GalNAc
# In short: as §1
# [27] = target: Fuc(a1-2)[GalNAc(a1-3)]Gal(b1-4)[Fuc(a1-3)]GlcNAc
# In short: as §1
# [28] = target: Fuc(a1-2)[GalNAc(a1-3)]Gal(b1-4)[Fuc(a1-3)]GlcNAc(b1-3)GalNAc
# In short: as §1
# [29] = target: Fuc(a1-2)[GalNAc(a1-4)]Gal(b1-4)GlcNAc
# In short: as §1
# [30] = target: Fuc(a1-2)[GalNAc(b1-3)]Gal
# In short: as §1
binder,measurement,setting,value
GS7807P-bth-537-23-537 (Bacteroides thetaiotaomicron) (protein) NYENINSNPYEAPDLSADGYALGSAMNNLAGCVVSPDVNTAQFTDCLLGGPLGGYFADSNAGFTETISNFNPKDDWSRVFLKSDKIIPTLYSNLTQVKLVSQNTNDPVPYAIAQVIKVAAMHRVTDAFGPIPYSQIGANGEIATPYDSQEVTYNTFFDELNAAIATLNENSNEQLVPTADYIYKGDVKKWIRFANSLKLRLAIRIAYANPVKAQQMAEEAVNPANGGVIESNADNATWNYFETSQNPIYVATRYNQVQTSDHGGVPCLTGGDTHAAADIICYMNGYKDNRREKFFTKSEWAGQDYVGMRRGIVIPELKTTGHKYSGVNIAPTSPLYWMNAAEVAFLRAEGQAVFNFSMGGTAESFYNQGIRLSFEQWGADGVEDYLKDDVNKPTAYTDPAGTNTYQNALSNITIKWNDSADKEEKQERIIVQKWIANWQLGNEAWADFRRTGYPKLIPVKENKSGGVVDSEKGARRMPYPLDEFVSNKANVEYAIANYLHGADNMATDVWWASKK,glycan array binding signal (z-score),[1],-0.368
same,glycan array binding signal (z-score),[2],0.161
same,glycan array binding signal (z-score),[3],0.192
same,glycan array binding signal (z-score),[4],-0.316
same,glycan array binding signal (z-score),[5],-0.398
same,glycan array binding signal (z-score),[6],-0.366
same,glycan array binding signal (z-score),[7],0.004
same,glycan array binding signal (z-score),[8],-0.331
same,glycan array binding signal (z-score),[9],-0.237
same,glycan array binding signal (z-score),[10],-0.231
same,glycan array binding signal (z-score),[11],-0.368
same,glycan array binding signal (z-score),[12],-0.353
same,glycan array binding signal (z-score),[13],0.034
same,glycan array binding signal (z-score),[14],-0.001
same,glycan array binding signal (z-score),[15],-0.32
same,glycan array binding signal (z-score),[16],-0.275
same,glycan array binding signal (z-score),[17],-0.209
same,glycan array binding signal (z-score),[18],-0.302
same,glycan array binding signal (z-score),[19],-0.271
same,glycan array binding signal (z-score),[20],3.7
same,glycan array binding signal (z-score),[21],-0.355
same,glycan array binding signal (z-score),[22],-0.356
same,glycan array binding signal (z-score),[23],0.178
same,glycan array binding signal (z-score),[24],-0.248
same,glycan array binding signal (z-score),[25],-0.268
same,glycan array binding signal (z-score),[26],-0.385
same,glycan array binding signal (z-score),[27],1.16
same,glycan array binding signal (z-score),[28],0.726
same,glycan array binding signal (z-score),[29],0.234
same,glycan array binding signal (z-score),[30],0.46
